# Laboratory results reported in PubChem BioAssay (NCATS).
# Inconclusive results, whose numbers are uncertain, are shown with a selection of clear calls. For part of these data: Where the call is inconclusive, the potency comes from a doubtful curve fit. The source made the active and inactive calls. Unless noted, calls come from the whole dose curve; as a rule, active = well fitted curve in the direction sought with a large enough effect; inconclusive = small, poorly fitted or top-dose-only effect, or another doubt; inactive = no such curve, though single readings can be large; an effect the other way counts as inactive or inconclusive.
# Tests used:
# [1] = MultiTox-Fluor Cytotoxicity Assay - LYMP1-002 - Dead Cells (AID 960); conditions: LYMP1-002 lymphoblastoid cells, dead-cell protease fluorescence; cytotoxicity (dead cells): at 46.1 µM (top of the series); note: potency is the fitted concentration of half-maximal effect; nearly all actives have a fitted effect of over 60% in size
# In short: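 Concentration-dependent increases in membrane-leaked protease activity are quantified in LYMP1-002 cells after 16 hr treatment; values are normalized against DMSO and tetraoctylammonium bromide (15 uM) controls and AC50 derived by Hill modeling.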
# [2] = Cell Viability - LYMP2-009 (AID 968);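 note: potency is the fitted concentration of half-maximal effect; cells exposed to compound for 24 h at 37 °C; nearly all actives have a fitted effect of over 55% in size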
# [3] = biological target: DNA repair nuclease/redox regulator APEX1 (Homo sapiens) (UniProt P27695); experiment: qHTS Validation Assay for Inhibitors of the Human Apurinic/apyrimidinic Endonuclease 1 (APE1) (AID 1705; note: potency is the fitted concentration of half-maximal effect)
# Chain of UniProt P27695 (P27695 whole entry, looked up): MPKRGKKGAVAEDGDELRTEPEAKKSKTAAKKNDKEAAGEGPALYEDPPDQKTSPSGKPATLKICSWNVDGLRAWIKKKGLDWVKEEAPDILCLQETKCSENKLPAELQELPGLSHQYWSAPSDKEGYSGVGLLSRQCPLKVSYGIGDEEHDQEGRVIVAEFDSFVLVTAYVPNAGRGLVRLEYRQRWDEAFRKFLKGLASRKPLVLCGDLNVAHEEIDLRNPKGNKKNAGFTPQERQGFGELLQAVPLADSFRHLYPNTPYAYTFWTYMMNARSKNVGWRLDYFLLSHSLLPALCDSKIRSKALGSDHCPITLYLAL
# In short: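 Fluorogenic double-stranded THF abasic-site substrate (5'-TAMRA/3'-BHQ-2), 50 nM final. Enzyme preincubated with compound 15 min at room temperature, then substrate added. Kinetic fluorescence (ex 525/em 598 nm) read three times at 60 s intervals; activity taken as third-minus-first read difference.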
# [4] = biological target: Endonuclease 4 (Escherichia coli (strain K12)) (UniProt P0A6C1); experiment: Counterscreen for APE1 Inhibitors: qHTS Validation Assay for Inhibitors of Endonuclease IV (AID 1708); note: potency is the fitted concentration of half-maximal effect
# In short: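 Read-out: fluorescence rise (ex 525/em 598 nm) from incision of a TAMRA/BHQ-2 double-stranded THF abasic-site substrate (50 nM), measured kinetically; third-minus-first read difference gave reaction progress. Enzyme 2 nM.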
# [5] = qHTS for differential inhibitors of proliferation of Plasmodium falciparum line GB4 (AID 1816); conditions: Potency: Plasmodium falciparum GB4 proliferation inhibition;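 note: potency is the fitted concentration of half-maximal effect; parasite growth measured after 72 h incubation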
# [6] = qHTS for differential inhibitors of proliferation of Plasmodium falciparum line D10 (AID 1877);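 note: potency is the fitted concentration of half-maximal effect; parasites grown with compound for 72 h before DNA staining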
# [7] = biological target: RecQ-like DNA helicase BLM (Homo sapiens) (UniProt P54132); experiment: qHTS Validation Assay for Inhibitors of Bloom's syndrome helicase (BLM) (AID 2364); note: potency is the fitted concentration of half-maximal effect
# Chain of UniProt P54132 (P54132 whole entry, looked up): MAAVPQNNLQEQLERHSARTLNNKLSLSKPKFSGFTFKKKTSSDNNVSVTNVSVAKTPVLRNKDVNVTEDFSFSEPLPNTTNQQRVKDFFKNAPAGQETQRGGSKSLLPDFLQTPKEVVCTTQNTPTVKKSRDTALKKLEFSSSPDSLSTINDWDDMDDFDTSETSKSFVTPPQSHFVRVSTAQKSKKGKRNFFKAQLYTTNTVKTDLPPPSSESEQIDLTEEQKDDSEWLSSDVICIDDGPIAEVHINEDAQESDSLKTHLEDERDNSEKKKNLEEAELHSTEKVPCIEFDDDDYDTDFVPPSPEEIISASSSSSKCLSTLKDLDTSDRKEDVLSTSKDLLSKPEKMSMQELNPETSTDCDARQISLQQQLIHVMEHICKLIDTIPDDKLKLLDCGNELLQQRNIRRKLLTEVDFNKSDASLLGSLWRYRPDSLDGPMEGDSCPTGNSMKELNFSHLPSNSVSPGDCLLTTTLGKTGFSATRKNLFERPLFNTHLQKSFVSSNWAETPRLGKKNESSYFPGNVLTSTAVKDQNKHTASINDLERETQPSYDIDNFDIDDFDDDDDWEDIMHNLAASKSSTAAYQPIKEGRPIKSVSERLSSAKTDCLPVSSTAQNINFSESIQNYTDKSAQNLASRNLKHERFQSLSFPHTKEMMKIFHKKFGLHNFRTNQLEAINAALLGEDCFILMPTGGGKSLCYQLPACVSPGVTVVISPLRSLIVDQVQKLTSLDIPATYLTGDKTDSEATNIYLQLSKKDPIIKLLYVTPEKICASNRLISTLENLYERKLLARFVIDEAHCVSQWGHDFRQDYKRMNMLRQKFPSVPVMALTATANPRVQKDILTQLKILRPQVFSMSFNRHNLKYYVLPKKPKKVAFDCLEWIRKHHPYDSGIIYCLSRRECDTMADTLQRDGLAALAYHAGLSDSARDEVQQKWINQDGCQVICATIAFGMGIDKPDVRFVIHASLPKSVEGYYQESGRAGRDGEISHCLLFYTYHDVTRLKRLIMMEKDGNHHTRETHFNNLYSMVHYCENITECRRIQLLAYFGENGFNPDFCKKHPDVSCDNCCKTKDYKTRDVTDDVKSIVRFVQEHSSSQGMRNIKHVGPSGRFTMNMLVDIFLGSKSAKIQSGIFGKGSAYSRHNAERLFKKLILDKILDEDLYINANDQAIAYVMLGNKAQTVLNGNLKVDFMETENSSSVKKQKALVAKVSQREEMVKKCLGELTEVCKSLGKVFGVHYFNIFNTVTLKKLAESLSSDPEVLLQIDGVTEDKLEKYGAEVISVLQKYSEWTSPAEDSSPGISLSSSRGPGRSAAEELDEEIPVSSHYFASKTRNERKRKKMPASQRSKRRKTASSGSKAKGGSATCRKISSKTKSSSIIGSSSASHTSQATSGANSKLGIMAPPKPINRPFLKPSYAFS
# In short: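 50 nM BLM preincubated 15 min at room temperature with compound in pH 8.0 Tris buffer containing 2.5 ug/ml poly(dI-dC); started with 200 nM TAMRA/BHQ-2 forked duplex and 2 mM ATP (final). Unwinding read as TAMRA fluorescence increase, two reads 2 h apart.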
# [8] = biological target: Chromobox protein homolog 1 (Homo sapiens) (UniProt P83916); experiment: qHTS Validation Assay for Inhibitors of HP1-beta Chromodomain Interactions with Methylated Histone Tails (AID 488953); note: potency is the fitted concentration of half-maximal effect; nearly all actives have a fitted effect of over 50% in size
# Chain of UniProt P83916 (P83916 whole entry, looked up): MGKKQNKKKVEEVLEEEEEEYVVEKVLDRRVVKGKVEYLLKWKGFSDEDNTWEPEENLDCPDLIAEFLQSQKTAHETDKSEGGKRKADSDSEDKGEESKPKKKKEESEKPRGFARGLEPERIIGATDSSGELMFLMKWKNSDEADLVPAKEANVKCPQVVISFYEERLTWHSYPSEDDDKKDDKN
# In short: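 Compounds pinned into a preassembled complex of HP1-beta and trimethyl-K9 histone H3(1-18) biotin peptide (50 nM each; PBS pH 7.4, 0.01% Tween-20). After 30 min, bead-based AlphaScreen detection followed.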
# [9] = Nrf2 qHTS screen for inhibitors: Validation (AID 493153; active = well fitted inhibition curve with a large enough effect in the main read-out, with a control signal flat, not every such curve was filed as active; inconclusive = small, poorly fitted or top-dose-only effect, or effect the other way, or a change in a side signal; inactive = no such curve, though single readings can be large or run the other way; note: potency is the fitted concentration of half-maximal effect)
# In short: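 In this counterscreened reporter format, each well gives two signals: CellTiter-Fluor fluorescence for cytotoxicity and ARE-luciferase luminescence for Nrf2 function. A549 ARE_Fluc cells in 5% FBS OPTI-MEM were exposed to compound titrations for 18-24 h.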
# [10] = biological target: Peptidyl-prolyl cis-trans isomerase NIMA-interacting 1 (Homo sapiens) (UniProt Q13526); experiment: qHTS Validation Assay to Find Inhibitors of Pin1 (AID 504536; active = well fitted inhibition curve with a large enough effect in the polarisation, with a control signal flat, not every such curve was filed as active; inconclusive = small, poorly fitted or top-dose-only effect, or effect the other way; the % refers to the polarisation; note: potency is the fitted concentration of half-maximal effect)
# Chain of UniProt Q13526 (Q13526 whole entry, looked up): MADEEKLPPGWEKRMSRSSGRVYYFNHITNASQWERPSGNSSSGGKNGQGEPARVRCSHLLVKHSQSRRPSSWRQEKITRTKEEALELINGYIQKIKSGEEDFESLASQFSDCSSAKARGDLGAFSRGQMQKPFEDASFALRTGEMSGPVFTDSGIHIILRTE
# In short: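 Fluorescence polarization competition: compounds (titration) displace HiFluor-488-labeled Pin1-1b peptide from Pin1 (0.3 uM final) in pH 7.5 HEPES buffer with DTT, 10 min at room temperature; %Activity normalized to no-enzyme wells, curves fitted.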
# [11] = biological target: Phosphoglycerate kinase, glycosomal (Trypanosoma brucei brucei) (UniProt P07378); experiment: qHTS Validation Assay to Find Inhibitors of Phosphoglycerate Kinase (AID 504547); conditions: enzymatic PGK inhibition, coupled luminescence read-out; note: potency is the fitted concentration of half-maximal effect
# In short: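 Compounds are pinned into the substrate/PGK mixture, and GAPDH (100nM final) is added to start the reaction by producing 1,3-BPG. After 60 minutes at room temperature, Kinase-Glo Plus is added and luminescence is measured 10 minutes later.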
# [12] = biological target: Ubiquitin carboxyl-terminal hydrolase 1 (Homo sapiens) (UniProt O94782); experiment: Inhibitors of USP1/UAF1: Pilot qHTS (AID 504865);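 note: rhodamine fluorescence freed from ubiquitin-rhodamine substrate followed over time; potency is the fitted concentration of half-maximal effect; nearly all actives have a fitted effect of over 35% in size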
# Chain of UniProt O94782 (O94782 whole entry, looked up): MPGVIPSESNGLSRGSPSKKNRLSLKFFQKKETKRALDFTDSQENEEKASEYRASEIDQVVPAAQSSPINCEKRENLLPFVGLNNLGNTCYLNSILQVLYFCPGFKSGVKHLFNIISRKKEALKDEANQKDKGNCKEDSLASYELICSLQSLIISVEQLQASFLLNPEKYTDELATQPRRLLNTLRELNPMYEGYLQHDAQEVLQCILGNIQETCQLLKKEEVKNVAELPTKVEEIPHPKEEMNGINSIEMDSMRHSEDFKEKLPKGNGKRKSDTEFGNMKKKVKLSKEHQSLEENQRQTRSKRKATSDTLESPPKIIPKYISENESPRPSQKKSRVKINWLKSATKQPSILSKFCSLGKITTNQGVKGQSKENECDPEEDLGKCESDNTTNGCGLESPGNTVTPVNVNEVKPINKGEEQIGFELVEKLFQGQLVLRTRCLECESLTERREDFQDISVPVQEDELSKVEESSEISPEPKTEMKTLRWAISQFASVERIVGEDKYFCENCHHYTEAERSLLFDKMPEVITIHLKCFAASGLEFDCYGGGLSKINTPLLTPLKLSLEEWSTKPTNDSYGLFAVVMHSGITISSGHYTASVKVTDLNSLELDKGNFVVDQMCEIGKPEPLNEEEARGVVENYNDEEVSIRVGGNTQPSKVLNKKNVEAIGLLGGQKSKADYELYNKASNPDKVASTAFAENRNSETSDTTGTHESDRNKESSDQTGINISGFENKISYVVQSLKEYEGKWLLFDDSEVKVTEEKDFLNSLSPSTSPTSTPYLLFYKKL
# In short: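 USP1/UAF1 complex at 1 nM preincubated 15 min at room temperature with compound, then Ub-Rho substrate added at 150 nM final. Fluorescence (480/540 nm) read kinetically in 50 mM HEPES pH 7.8, 0.5 mM EDTA, 1 mM TCEP, 0.1 mg/ml BSA, 0.01% Tween-20.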
# [13] = S16 Schwann cell PMP22 intronic element firefly luciferase assay (AID 624032); note: potency is the fitted concentration of half-maximal effect; nearly all actives have a fitted effect of over 30% in size
# In short: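 Rat S16 Schwann cells stably carrying firefly luciferase driven by a PMP22 intronic element, in 10% FBS, treated 24 h at 37 C. ONE-Glo luminescence normalized to PTC124 control and DMSO (0%); curves classed by r2, magnitude and activity.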
# [14] = qHTS assay for small molecule agonists of the antioxidant response element (ARE) signaling pathway (AID 651741; active = well fitted activation curve with a large enough effect in the signal ratio; inconclusive = small, poorly fitted or top-dose-only effect, or effect the other way, or a change in a side signal; the % refers to the signal ratio; note: potency is the fitted concentration of half-maximal effect); conditions: HepG2 ARE-bla reporter, beta-lactamase FRET ratio, 16 h; activation: at 96 µM (top of the series)
# In short: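 HepG2 ARE-bla reporter cells, 2,000/well; 5 h settle at 37 C/5% CO2; compound pin transfer (23 nL, DMSO); 16 h at 37 C; LiveBLAzer B/G FRET substrate, 2 h RT; fluorescence intensity read.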
# [15] = qHTS assay for small molecule activators of the p53 signaling pathway (AID 651743; active = well fitted activation curve with a large enough effect in the signal ratio, not every such curve was filed as active; inconclusive = small, poorly fitted or top-dose-only effect, or a change in a side signal; the % refers to the signal ratio; note: potency is the fitted concentration of half-maximal effect); conditions: HCT-116 p53RE-bla, beta-lactamase FRET ratio, 16 h; activation: stronger effect = higher value
# In short: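 Reporter: beta-lactamase driven by p53 response elements, stably integrated in HCT-116 cells. Cells seeded at 4,000/well, 5 h preincubation, compound (DMSO) 16 h at 37 C; B/G FRET substrate 2 h RT; fluorescence intensity read.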
# [16] = qHTS assay for small molecule activators of the nuclear factor-kappa B (NF-kB) signaling pathway (AID 651749; active = well fitted activation curve with a large enough effect in the signal ratio; inconclusive = small, poorly fitted or top-dose-only effect, or a change in a side signal; the % refers to the signal ratio; note: potency is the fitted concentration of half-maximal effect); conditions: NF-kB-bla ME-180 cells, beta-lactamase FRET ratio, 16 h; activation: stronger effect = higher value
# In short: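 NF-kB-bla ME-180 cells, 2,000/well; 23 nL compound or DMSO pinned; 16 hr, 37C/5% CO2; beta-lactamase FRET read-out.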
# [17] = qHTS assay for small molecule agonists of the antioxidant response element (ARE) signaling pathway measured by Nrf2-dependant transcriptional activity - cell viability counter screen (AID 720653; active = well fitted curve in the direction sought with a large enough effect in the repeat runs; inconclusive = weak or mixed curves; inactive = no such curve, though single readings can be large; an effect the other way counts as inactive or inconclusive; note: potency is the fitted concentration of half-maximal effect); conditions: ARE-bla HepG2 viability, CellTiter-Glo ATP luminescence, 16 h; max response: stronger effect = lower value
# In short: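 ARE-bla HepG2 cells treated with compounds for 16 h at 37C; this counter screen measures viability as intracellular ATP by CellTiter-Glo luminescence after 30 min at room temperature.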
# [18] = qHTS for differential inhibitors of proliferation of Plasmodium falciparum line 7G8 (AID 1815);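 note: potency is the fitted concentration of half-maximal effect; parasite growth measured after three days of incubation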
# [19] = qHTS for differential inhibitors of proliferation of Plasmodium falciparum line Dd2 (AID 1882); conditions: Potency: Plasmodium falciparum Dd2 proliferation inhibition; note: potency is the fitted concentration of half-maximal effect; nearly all actives have a fitted effect of over 65% in size
# In short: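 RBC culture, 0.3% parasitemia / 2.5% Hct final; cpd added by pin tool in DMSO; 72 h, 37 C, 5% CO2; lysis buffer + SYBR Green I, o/n RT dark; FI 485/535; norm. to artemisinin 0.29 uM and DMSO.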
# [20] = Validation screen for small molecules that induce DNA re-replication in MCF 10A normal breast cells (AID 463097); note: potency is the fitted concentration of half-maximal effect; nearly all actives have a fitted effect of over 60% in size
# In short: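 MCF 10A cells exposed to compound 48 hr at 37 C, 5% CO2, then Hoechst-stained 40 min. Laser-scanning imaging of nuclear DNA content (405 nm ex, 500-530 nm em); re-replication scored as rise in nuclei with elevated fluorescence intensity.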
# [21] = Validation screen for small molecules that induce DNA re-replication in SW480 colon adenocarcinoma cells (AID 504364); note: potency is the fitted concentration of half-maximal effect
# In short: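 Hoechst-stained SW480 nuclei, imaged at 405 nm excitation after 48 hr compound exposure, were counted for elevated DNA content as the re-replication signal.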
# [22] = biological target: Peroxisome proliferator-activated receptor gamma (Homo sapiens) (UniProt P37231); experiment: qHTS assay for small molecule agonists of peroxisome proliferator-activated receptor gamma signaling (AID 588536; active = well fitted curve in the direction sought with a large enough effect in the signal ratio, with a control signal flat, not every such curve was filed as active; inconclusive = small, poorly fitted or top-dose-only effect, or effect the other way, or a change in a side signal; inactive = no such curve, though single readings can be large or run the other way; the % refers to the signal ratio;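 note: 0% = DMSO basal wells and 100% = rosiglitazone at 2 µM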); conditions: HEK293 PPARg-UAS-bla, beta-lactamase ratio, 16 h; activation: at 76.7 µM (top of the series), percent of rosiglitazone response, DMSO as zero
# In short: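 This is an agonist-mode beta-lactamase reporter assay in HEK293 PPAR-gamma-UAS-bla cells with 1% charcoal/dextran FBS. Compound titrations ran 16 h at 37 C before CCF4 detection. EC50 and efficacy are Hill fits scaled to 2 uM rosiglitazone (100%) and DMSO basal.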
# [23] = biological target: Peroxisome proliferator-activated receptor gamma (Homo sapiens) (UniProt P37231); experiment: qHTS assay for small molecule antagonists of peroxisome proliferator-activated receptor gamma signaling (AID 588537; active = well fitted inhibition curve with a large enough effect in the signal ratio, with a control signal flat, not every such curve was filed as active; inconclusive = small, poorly fitted or top-dose-only effect, or effect the other way, or a change in a side signal; the % refers to the signal ratio;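 note: reporter cells co-stimulated with 50 nM rosiglitazone agonist during compound treatment; % of control where 0% means no effect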); conditions: HEK293 PPARg-UAS-bla, beta-lactamase ratio, antagonist mode; activity, negative = inhibition: at 76.8 µM (top of the series)
# In short: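 Read-out: CCF4 fluorescence (ex 405, em 460/530 nm) after 2 h at RT. Cells were HEK293 carrying a UAS-bla reporter and treated 16 h at 37 C with compound plus rosiglitazone (50 nM final). Normalized to rosiglitazone and DMSO.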
# [24] = biological target: Retinoic acid receptor RXR-alpha (Homo sapiens) (UniProt P19793); experiment: qHTS assay for small molecule agonists of retinoid X receptor alpha signaling (AID 588544; calls by dose curve;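 note: 0% = DMSO basal wells and 100% = reference agonist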); conditions: HEK293T RXRa-UAS-bla, beta-lactamase reporter, 18 h; activation: at 76.7 µM (top of the series)
# Chain of UniProt P19793 (P19793 whole entry, looked up): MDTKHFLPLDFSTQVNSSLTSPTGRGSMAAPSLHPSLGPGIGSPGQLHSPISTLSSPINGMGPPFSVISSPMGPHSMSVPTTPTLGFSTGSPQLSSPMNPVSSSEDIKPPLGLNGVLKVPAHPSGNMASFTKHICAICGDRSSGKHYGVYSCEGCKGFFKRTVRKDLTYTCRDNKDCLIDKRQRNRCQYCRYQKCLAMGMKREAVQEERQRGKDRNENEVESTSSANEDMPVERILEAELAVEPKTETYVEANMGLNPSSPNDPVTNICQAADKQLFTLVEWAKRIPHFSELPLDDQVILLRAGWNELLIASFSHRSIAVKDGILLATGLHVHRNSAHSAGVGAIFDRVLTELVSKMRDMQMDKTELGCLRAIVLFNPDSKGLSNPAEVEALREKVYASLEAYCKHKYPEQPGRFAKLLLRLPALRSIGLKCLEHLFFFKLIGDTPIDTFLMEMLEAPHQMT
# [25] = biological target: Thyroid hormone receptor beta (Homo sapiens) (UniProt P10828); experiment: qHTS assay for small molecule antagonists of thyroid hormone receptor beta signaling (AID 588547; active = well fitted inhibition curve with a large enough effect in the signal ratio, with a control signal flat, not every such curve was filed as active; inconclusive = small, poorly fitted or top-dose-only effect, or effect the other way, or a change in a side signal; the % refers to the signal ratio;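 note: cells stimulated with 0.4 nM T3 agonist during compound exposure; % is set by controls: 0 for no effect and ±100 for the full control effect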); conditions: TR-UAS-bla HEK293, beta-lactamase ratio, antagonist mode, 18 h
# Chain of UniProt P10828 (P10828 whole entry, looked up): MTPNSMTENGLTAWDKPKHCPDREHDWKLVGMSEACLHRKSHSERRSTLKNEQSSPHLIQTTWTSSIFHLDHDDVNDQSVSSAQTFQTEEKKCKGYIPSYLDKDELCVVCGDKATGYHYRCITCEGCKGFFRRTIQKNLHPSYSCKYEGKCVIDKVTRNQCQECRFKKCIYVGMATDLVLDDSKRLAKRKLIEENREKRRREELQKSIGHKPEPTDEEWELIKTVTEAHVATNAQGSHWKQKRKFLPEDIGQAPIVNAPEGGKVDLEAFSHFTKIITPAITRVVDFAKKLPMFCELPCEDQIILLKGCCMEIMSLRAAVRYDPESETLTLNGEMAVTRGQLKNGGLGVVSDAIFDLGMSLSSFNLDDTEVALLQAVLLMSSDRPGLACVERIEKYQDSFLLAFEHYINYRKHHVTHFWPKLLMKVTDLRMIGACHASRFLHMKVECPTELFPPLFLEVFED
# In short: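 TR-UAS-bla GripTite HEK293 cells in 2% charcoal/dextran FBS medium; compounds 0.59 nM to 92 uM with T3 at 0.4nM final, 18 h at 37 C. Beta-lactamase read by CCF4 fluorescence (460/530 nm); Hill fits gave IC50 and efficacy.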
# [26] = qHTS assay for small molecule agonists of the antioxidant response element (ARE) signaling pathway measured by Nrf2-dependant transcriptional activity (AID 720636; active = well fitted curve in the direction sought with a large enough effect in the repeat runs; inconclusive = weak or mixed curves; inactive = no such curve, though single readings can be large; an effect the other way counts as inactive or inconclusive;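 note: HepG2 cells with an ARE-driven luciferase reporter; % of control where 0% means no effect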)
# In short: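 Attachment 6 hr at 37 C, then compound versus DMSO vehicle for 16 hr in ARE-luc HepG2 cells (1% dialyzed FBS); luminescence recorded 30 min after ONE-Glo addition at room temperature.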
# Tags give direction and shape of the fitted curve or compound fluorescence and quenching.
smiles,measurement,setting,value
CC(C)NCC(O)COc1cccc2ccccc12 (configuration not stated),Potency,[1],"inconclusive: 0.199 µM [cytotoxic, full curve, poor fit]"
same,Potency,[2],"inconclusive: 100 µM [cytotoxic, partial curve, poor fit]"
Nc1nc(N)c2nc(CNc3ccc(C(=O)NC(CCC(=O)O)C(=O)O)cc3)cnc2n1 (configuration not stated),Potency,[3],"inconclusive: 31.6 µM [inhibitor, partial curve]"
same,Potency,[4],"inconclusive: 11.2 µM [inhibitor, partial curve, poor fit]"
same,Potency,[5],"inconclusive: 14.1 µM [inhibitor, single point]"
same,Potency,[6],"inconclusive: 17.8 µM [inhibitor, single point]"
same,Potency,[7],active: 20 µM
same,Potency,[8],"inconclusive: 50.1 µM [inhibitor, partial curve]"
same,Potency,[9],"inconclusive: 0.092 µM [inhibitor, full curve, poor fit]"
same,Potency,[10],"inconclusive: 37.9 µM [falling, partial curve, poor fit]"
same,Potency,[11],"inconclusive: 26.9 µM [inhibitor, single point]"
same,Potency,[12],"inconclusive: 39.8 µM [inhibitor, partial curve, poor fit]"
same,Potency,[13],"inconclusive: 16.1 µM [inhibitor, partial curve]"
same,Potency,[14],active: 0.077 µM
same,Potency,[15],active: 0.1 µM
same,Potency,[16],"inconclusive: 39.8 µM [activator, partial curve]"
same,Potency,[17],active: 0.0126 µM
CC[C@H](CO)Nc1nc(NCc2ccccc2)c2ncn(C(C)C)c2n1,Potency,[18],active: 5.01 µM
same,Potency,[5],active: 6.31 µM
same,Potency,[19],"inconclusive: 3.98 µM [inhibitor, partial curve]"
same,Potency,[20],"inconclusive: 15.8 µM [activator, single point]"
same,Potency,[21],"inconclusive: 20.6 µM [activator, single point]"
Cc1ccc(C)c2ccccc12,Potency,[22],inactive
same,"activity, negative = inhibition",[23],inconclusive: 1.71%
same,Potency,[24],inactive
same,activity change % (negative = inhibition),[25],inactive: -0.662%
same,Potency,[26],inactive
